# Publication PMC4336329 (PLoS ONE, 2015)
# About 14,000 (4.5%) of roughly 310,000 compounds showed an effect of 50% or more. The effect is printed as a negative number. Some of the results follow.
# Biological target: human ether-à-go-go-related gene (hERG) potassium channel (human, UniProt Q12809)
# Test: primary screen, population patch clamp on CHO cells stably expressing hERG
# 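Also: peak tail current of the secondary pulse compared with the same well before compound.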
# Sequence of human ether-à-go-go-related gene (hERG) potassium channel (Q12809 whole entry, looked up): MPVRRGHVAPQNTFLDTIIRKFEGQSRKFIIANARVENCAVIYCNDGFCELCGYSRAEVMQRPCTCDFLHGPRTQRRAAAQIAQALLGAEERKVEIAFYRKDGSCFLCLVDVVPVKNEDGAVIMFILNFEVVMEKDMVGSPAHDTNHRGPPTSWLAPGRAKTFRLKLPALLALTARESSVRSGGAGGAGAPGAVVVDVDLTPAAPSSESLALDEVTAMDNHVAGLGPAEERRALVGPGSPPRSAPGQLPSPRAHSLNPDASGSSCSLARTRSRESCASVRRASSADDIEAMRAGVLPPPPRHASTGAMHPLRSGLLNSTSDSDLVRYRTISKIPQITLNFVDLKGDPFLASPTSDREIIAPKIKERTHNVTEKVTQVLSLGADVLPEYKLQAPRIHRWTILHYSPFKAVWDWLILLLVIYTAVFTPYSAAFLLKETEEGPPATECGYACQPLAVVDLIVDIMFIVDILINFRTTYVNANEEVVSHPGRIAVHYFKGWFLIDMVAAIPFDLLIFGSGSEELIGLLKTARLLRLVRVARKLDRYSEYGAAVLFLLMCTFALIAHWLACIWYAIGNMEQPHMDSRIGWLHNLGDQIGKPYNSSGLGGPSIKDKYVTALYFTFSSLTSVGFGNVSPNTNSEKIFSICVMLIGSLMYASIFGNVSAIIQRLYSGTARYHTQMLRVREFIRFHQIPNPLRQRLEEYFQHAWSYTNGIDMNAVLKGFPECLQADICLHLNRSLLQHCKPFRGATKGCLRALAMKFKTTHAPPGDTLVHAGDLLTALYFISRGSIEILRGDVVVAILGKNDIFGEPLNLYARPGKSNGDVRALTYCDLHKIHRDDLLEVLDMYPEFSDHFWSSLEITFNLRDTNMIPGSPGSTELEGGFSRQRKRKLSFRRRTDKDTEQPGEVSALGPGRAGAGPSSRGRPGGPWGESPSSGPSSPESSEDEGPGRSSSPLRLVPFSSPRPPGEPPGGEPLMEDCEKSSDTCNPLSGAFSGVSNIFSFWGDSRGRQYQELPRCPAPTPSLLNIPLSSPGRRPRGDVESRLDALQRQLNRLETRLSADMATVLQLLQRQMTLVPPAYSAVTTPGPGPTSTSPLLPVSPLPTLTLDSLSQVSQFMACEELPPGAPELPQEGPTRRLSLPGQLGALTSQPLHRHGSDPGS
row,SMILES,"hERG current change (%, negative = inhibition) at 10uM"
1,CCNc1nc(NCC)nc(C(=O)Nc2ccccc2)n1,-31.1%
2,CCOC1CCc2c(C)nc(N)nc2S1 (stereo not shown),17.5%
3,CC1CCN(C(C)C(=O)Nc2ccccc2-c2ccccc2)CC1.O=C(O)C(=O)O (stereo not shown),-15.4%
4,O=[N+]([O-])c1cc(/C=N/N2CCN(C3c4ccccc4-c4ccccc43)CC2)ccc1Cl,0.86%
5,CN(C)c1ccc(C(CNS(=O)(=O)c2ccc3ccccc3c2)c2c[nH]c3ccccc23)cc1 (stereo not shown),18%
6,CC(=O)C1=C(C)NC(SCC(N)=O)=C(C#N)C1C (stereo not shown),8.65%
7,CCCc1cc(=O)oc2c(C)c(OCC(=O)N3CCC(C(=O)O)CC3)ccc12,14.5%
8,CC(=O)Nc1ccccc1NC(=O)C/C(C)=N/NC(=O)C(=O)Nc1cccc(Cl)c1C,0.355%
9,COc1c(/C=N/NC(=O)c2ccccc2O)c(CCN(C)C(C)=O)cc2c1OCO2,-3.64%
10,C=C1SC(=Nc2c(C)cc(C)cc2C)N(C(=O)c2sc3ccccc3c2Cl)C12CCCCC2,33.1%
11,COc1ccc(NC(=O)C(=O)NCCCn2ccnc2)cc1,0.989%
12,CCOC(=O)c1csc(-c2ccc3c(c2)CCO3)n1,-3.16%
13,Cc1cccc(-n2cnc3cc(C(=O)N4CCCCC4)ccc32)c1,-21.3%
14,CC(OC(=O)C1=NN(c2ccccc2)C(=O)CC1)C(=O)NC1CCCCC1C (stereo not shown),1.73%
15,N#Cc1cnn2ccn(C3OC(CO)C(O)C3O)c12 (stereo not shown),2.13%
16,CC(C)COC(=O)N1CC(O)CC1C(=O)O (stereo not shown),25.3%
17,COc1ccc(CCC(=O)NNC(=S)NCc2ccc(F)cc2)cc1,15.2%
18,CCOC(=O)C1(CCOC)CCN(CC(C)Cc2ccc3c(c2)OCO3)CC1 (stereo not shown),-43.1%
19,CCOc1ccc(CN2CCNC(=O)C2CC(=O)N(C)CC2CCOCC2)cc1 (stereo not shown),9.99%
20,Cc1ccc(C(=O)NC(=S)NNC(=O)CCN2CCOCC2)cc1,17.1%
21,O=C(O)c1c(C(=O)N2N=C3/C(=C/c4ccccc4)CCCC3C2c2ccccc2)cccc1[N+](=O)[O-] (stereo not shown),10.6%
22,COc1ccc(-c2cc(C(=O)Nc3cc(C)n(Cc4ccc(Cl)cc4)n3)no2)cc1OC,-9.8%

row,SMILES,"hERG current change (%, negative = inhibition) at 10uM"
1,O=[N+]([O-])c1cccc(C=Nc2cc3c(cc2Br)OCCO3)c1,8.6%
2,CCOC(=O)C1=C(c2ccccc2)NC(=O)NC1c1ccc(OCC#N)c(OC)c1 (stereo not shown),-0.477%
3,Cc1ccc(S(=O)(=O)N2CCOCC2)cc1C(=O)Nc1cccc(C(=O)NC2CC2)c1,-3.11%
4,O=S(=O)(NCC1CCCO1)c1ccc(NS(=O)(=O)c2ccc(F)cc2)cc1 (stereo not shown),14.6%
5,COCCNc1nc2nonc2nc1NC(C)c1ccccc1Cl (stereo not shown),13.3%
6,CC1C(=O)Nc2ccccc2N1C(=O)c1ccc(F)cc1 (stereo not shown),15.7%
7,O=C(O)CCC(=O)N1CCN(c2nc(-c3ccccc3)c3ccccc3n2)CC1,13.7%
8,COc1ccccc1N1C(=O)C2C3C=CC(C3)C2(C)C1=O (stereo not shown),7.91%
9,Cn1cnnc1SCC(=O)Nc1c(F)cc(F)cc1Br,10.9%
10,CCc1nnc(NC(=O)CSc2nc(-c3ccccc3)c(-c3ccccc3)o2)s1,5.01%
11,CC(C)[C@H](NC(=O)[C@@H]1CSCN1C(=O)OC(C)(C)C)C(=O)NCC1CCC(C(=O)O)CC1 (stereo partly shown),10.2%
12,Cn1c(=O)[nH]c(=O)c2c1nc(Br)n2CC(O)COCc1ccccc1 (stereo not shown),-2.34%
13,CCc1ccccc1NC(=O)C(CC)Sc1nc2cc3c(cc2c(=O)n1Cc1ccco1)OCO3 (stereo not shown),17.1%
14,CCOc1ncccc1C(=O)NCc1ccc(C)cc1,-3.68%
15,Cc1ccccc1NC(=O)Cc1nc(COC(=O)c2ccc(C(F)(F)F)cc2)cs1,5.88%
16,COCCCNC(=O)CNC(=S)N(Cc1ccc(F)cc1)C1CCCCC1,-8.59%
17,CC1(C)C(=O)OC(c2cccn2-c2cccc([N+](=O)[O-])c2)C2(CCCCC2)C1=O (stereo not shown),-18.3%
18,CCOc1ccc(-c2nnn(CC(=O)Nc3ccccc3OC)n2)cc1OCC,3.2%
19,Cn1c(N2CCN(C(c3ccccc3)c3ccccc3)CC2)nc2ccccc21,-51.7%
20,Cc1cccc(NC(=O)CSc2nc3ccccc3nc2N2CCCC2)c1,1.02%
21,Cc1ccc(S(=O)(=O)N2CCC(C(=O)NNS(=O)(=O)c3ccc(Cl)cc3)CC2)cc1,-0.444%
22,Cc1ccccc1CC1(CO)CCCN(C(=O)c2cccc(Cl)c2)C1 (stereo not shown),1.01%

row,SMILES,"hERG current change (%, negative = inhibition) at 10uM"
1,Cc1ccccc1CCN1CCCC(CN(C)C(=O)c2ccc3ncccc3c2)C1 (stereo not shown),-30.3%
2,CCCCCOC(=O)Cn1c(=O)oc2ccccc21,0.0173%
3,Cc1ccc(S(=O)(=O)N2CCCOC2CNC(=O)C(=O)NCCN2CCOCC2)cc1 (stereo not shown),20.6%
4,CCCC1Cc2c(sc(NC(=S)NC(=O)c3ccccc3)c2C#N)CO1 (stereo not shown),-3.63%
5,Cc1oc(-c2ccccc2)[n+]([O-])c1C.Cl,9.51%
6,CCc1nc(SCC(=O)OC)c2c3c(sc2n1)COC(C)(C)C3,12%
7,COC(=O)/C(=C/c1c[nH]c2ccccc12)[N+](=O)[O-],16.7%
8,CCN(CC)S(=O)(=O)c1cc(NC(=O)COC(=O)c2c(C)noc2C)ccc1C,-30.6%
9,CCC(=O)N1CCc2cc(S(=O)(=O)NCCc3ccc(S(N)(=O)=O)cc3)ccc21,24.9%
10,CCCN(Cc1cc2ccc(C)cc2[nH]c1=O)C(=O)c1cccnc1,-36.1%
11,O=c1[nH]cc(NCCNc2ncc(C(F)(F)F)cc2Cl)c(=O)[nH]1,3.6%
12,COc1ccc(C(=O)Nc2ccccc2N2CCN(C(=O)c3ccccc3)CC2)cc1Br,-8.68%
13,CCCn1c(SCc2nc3sc(C)c(C)c3c(=O)[nH]2)nc2ccccc2c1=O,5.75%
14,CCOC(=O)c1cn(Cc2ccccc2)nn1,13.2%
15,Cc1ccc(NC(=O)Cn2ccsc2=N)c([N+](=O)[O-])c1.Cl,35.1%
16,CCCn1c(SCC(=O)Nc2nc(C)cs2)nnc1-c1cccnc1,-29.1%
17,COc1ccccc1CNC(=O)c1cn(C)c2ccc(S(=O)(=O)N3CCCC3)cc2c1=O,-7.92%
18,CC(C)C(=O)Nc1c(-c2ccc(Cl)cc2)c(=O)c2ccccc2n1C,20.9%
19,COCCn1c(SCC(=O)N2CCCC2)nnc1C(C)C,9.33%
20,COC(=O)c1[nH]c2cccc(C)c2c1NC(=O)CN1CCN(c2ccccc2OC)CC1,-5.06%
21,CN1CCN(CC(O)COc2ccc(OCC(O)CN3CCN(C)CC3)cc2)CC1 (stereo not shown),-7.27%
22,COc1ccc(-c2csc(N(CC3CCCO3)C(=O)c3ccccc3)n2)cc1 (stereo not shown),1.81%

row,SMILES,"hERG current change (%, negative = inhibition) at 10uM"
1,CCOC(=O)C1=C(C)NC(C)=C(C(=O)OCC)C1C(=O)OCC(=O)N(CC)C1CCS(=O)(=O)C1 (stereo not shown),24.3%
2,O=C(NC1CCCCCC1)C(=S)NC1CCCCC1,18.1%
3,CCCCN(CC)C(=O)Cn1c(=O)sc2ccccc21,-3.64%
4,CCc1sc(C(=O)Nc2ccsc2C(=O)OC)cc1Br,-5.86%
5,COc1ccccc1OCC(=O)OCC(=O)NCCN1C(=O)CSC1=O,-0.783%
6,O=C1N/C(=N/S(=O)(=O)c2ccccc2)S/C1=C/c1cccnc1,1.74%
7,C=CCNC(=S)N1CCN(c2ncc(C(F)(F)F)cc2Cl)CC1,-33.7%
8,CCC(C)(C)n1nnnc1C(c1cc2cccc(C)c2[nH]c1=O)N1CCCC1 (stereo not shown),-0.736%
9,O=C(Nc1cccc(-c2nnc(-c3ccccc3)o2)c1)C1CCCO1 (stereo not shown),-66.5%
10,COCC(=O)Nc1ccc([N+](=O)[O-])cc1C,-2.44%
11,CC(C)(C)OC(=O)N1CC=C2C(C#N)=C(N)C(C#N)(C#N)[C@H](c3cccnc3)[C@H]2C1,-1.45%
12,COc1cc2c(cc1OC)C(c1ccccc1C)CC(=O)N2 (stereo not shown),-2.27%
13,COc1ccc(CCNC(=O)c2ccc(-c3cccc([N+](=O)[O-])c3)o2)cc1OC,-26.7%
14,CCc1cccc2c(C(=O)COC(=O)C3=NNC(=O)CC3)c[nH]c12,-51.6%
15,COC(=O)c1ccc2nc(NC(=O)C3CC3)sc2c1,14%
16,Cc1ccc(C)c(N=C2NC(=O)CS2)c1,13.6%
17,CCCc1ccc(Oc2coc3cc(OCC(=O)Nc4ccccc4C)ccc3c2=O)cc1,-0.217%
18,COc1ccc(C2=Nn3c(nnc3-c3ccncc3)SC2)cc1,-41.1%
19,CN(C(=O)c1cc2nc(-c3ccco3)cc(C(F)(F)F)n2n1)C1CCCCC1,-10.6%
20,COc1ccc(S(=O)(=O)Nc2ccc(F)cc2)c(C)c1C,-8.11%
21,Cc1nc([N+](=O)[O-])c(Sc2nc3ccccc3[nH]2)n1Cc1ccccc1,4.74%
22,COc1ccc(/C=N/NC(=O)C(=O)N2CCCCCC2)cc1O,-30.3%
